# Results: publication PMC6919601, “Identification of Plasmodium dipeptidyl aminopeptidase allosteric inhibitors by high throughput screening” (PLoS ONE, 2019)
# Among all 110,000 compounds or so, about 230 (0.21%) showed an effect of 50% or more. The list shows a part of the results.
# Target: DPAP1 (Plasmodium falciparum, UniProt Q8IIJ9)
# Assay: primary screen, percent inhibition; read by cleavage of a fluorogenic dipeptide substrate; higher = more effect of the substance
# Design: species or system P. falciparum D10 trophozoite lysates; single well
# 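Note: 30 min substrate incubation versus DMSO and 10 µM JCP410 controls.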
# Chain of DPAP1 (Q8IIJ9 whole entry, looked up): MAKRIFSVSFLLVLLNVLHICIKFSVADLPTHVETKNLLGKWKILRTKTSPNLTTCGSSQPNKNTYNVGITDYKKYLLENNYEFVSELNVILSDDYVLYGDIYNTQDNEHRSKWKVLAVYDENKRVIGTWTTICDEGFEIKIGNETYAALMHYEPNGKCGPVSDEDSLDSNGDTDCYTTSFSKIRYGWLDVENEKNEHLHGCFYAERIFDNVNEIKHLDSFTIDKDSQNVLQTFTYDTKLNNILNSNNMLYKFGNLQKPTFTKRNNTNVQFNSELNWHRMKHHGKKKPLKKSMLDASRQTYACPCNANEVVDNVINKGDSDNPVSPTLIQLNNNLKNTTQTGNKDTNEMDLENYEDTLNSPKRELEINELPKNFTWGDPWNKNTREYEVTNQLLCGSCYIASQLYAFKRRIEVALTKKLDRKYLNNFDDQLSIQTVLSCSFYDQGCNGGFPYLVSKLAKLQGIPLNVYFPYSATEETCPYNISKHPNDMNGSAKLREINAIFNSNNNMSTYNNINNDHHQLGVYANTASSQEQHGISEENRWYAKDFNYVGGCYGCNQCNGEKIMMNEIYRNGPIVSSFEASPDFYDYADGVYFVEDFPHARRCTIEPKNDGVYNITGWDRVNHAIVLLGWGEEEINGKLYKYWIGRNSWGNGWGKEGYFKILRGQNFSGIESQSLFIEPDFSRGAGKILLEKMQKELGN
row,Structure (SMILES),% Inhibition @ 10 uM [%]
1,CCCc1noc(-c2ccc(-c3ccc(OC)cc3)cc2)n1,6.07
2,Cc1ccc(CNC(=O)CCc2nc(O)c3c4c(sc3n2)CCCC4)cc1,4.69
3,COC(=O)c1ccc(CSc2nc(O)c3cnn(-c4ccc(Cl)cc4)c3n2)o1,-9.18
4,CCOc1cc(N2C(=O)CC3CS(=O)(=O)CC32)c(OCC)cc1NC(=O)c1ccccc1 (centres unmarked),0.755
5,COc1ccc(Cn2nnc(C(=O)NCc3ccc(C)cc3)c2N)cc1Br,-0.465
6,COc1ccc(CNC(=O)CCc2c(C)nc3c4c(C)cc(C)nc4nn3c2C)cc1,-0.72
7,O=C(NCc1ccccc1)c1cc(-c2ccccn2)nc2ccc(S(=O)(=O)N3CCOCC3)cc12,3.66
8,O=[N+]([O-])c1cc(-c2n[nH]c(O)c2C2=NCCCCC2)c(Cl)cc1Cl,-0.414
9,COc1ccc(Cn2c(SCc3ccc(C(=O)NCc4cccnc4)cc3)nc3cccnc32)cc1,3.46
10,Cc1ccc(C2CC(C(F)(F)F)n3ncc(C(=O)Nc4ccc(C(C)O)cc4)c3N2)cc1 (centres unmarked),2.65
11,COC(=O)c1cc(=O)n(CCc2ccccc2)/c(=N/CCc2ccccc2)s1,-5.25
12,CC1=CC(C)(C)N(C(=O)CN2C(=O)CCC2=O)c2cc(C)ccc21,0.317
13,O=C(Nc1cccc(Br)c1)c1cccc(Cn2cc(Cl)cn2)c1,-6.62
14,CCc1nnc2sc(NC(=O)Cc3ccccc3)nn12,-2.79
15,CNS(=O)(=O)c1cn(CC(=O)N2CCC(C)CC2)cc1S(=O)(=O)NC,-8.28
16,CCOC(=O)c1nc(-c2cccs2)no1,-11.4
17,O=C(NCc1ccco1)/C(=C/c1cccs1)NC(=O)c1cccs1,5.89
18,CCC(C(=O)NC1CCCC1)n1c(SCc2cccc(OC)c2)nc2ccncc21 (centres unmarked),5.54
19,CCN(CC)c1ccc(NC(=O)Nc2ccc(C)cc2)cc1,-6.59
20,COCCNC(=O)c1[nH]nc2c1CCCC2,-5.37
21,Cc1c(Cc2ccccc2)sc(NC(=O)C2CCCCC2)c1C(N)=O,1.62
22,CCc1nccn1C(=O)c1cnn2c(C(F)F)cc(-c3ccccc3)nc12,75.7
23,CCOc1ccccc1CNCc1c(C(=O)O)n(Cc2ccc(OC)cc2)c2ccccc12,-4.37
24,COc1ccc(C)cc1NC(=O)CC1COc2ccccc2O1 (centres unmarked),0.913
25,COC(=O)c1cccc(CNCCc2c(C)[nH]c3ccc(OC)cc23)c1,2.7

row,Structure (SMILES),% Inhibition @ 10 uM [%]
1,O=C(Nc1ccc(F)cc1)c1ccc(Cn2cc(Br)cn2)cc1,1.96
2,Nc1nc(-c2ccccc2)cc(C(F)F)n1,4.7
3,Cn1c2c(c3cc(C4CCCCC4)ccc31)CCc1c[nH]nc1-2,4.57
4,Cc1oc(-c2ccc(Cl)cc2)nc1CSCC(=O)NCCCN1CCOCC1,2.16
5,COc1ccc(N2C3=C(C(=O)CC(C)(C)C3)C(c3cnn(C)c3)C3=C2CC(C)(C)CC3=O)cc1,1.69
6,O=C(NC1CC1)c1cc2nc(-c3cccs3)cc(C(F)(F)Cl)n2n1,-3.69
7,Fc1ccc(N2CCN(C3CCCCCC3)CC2)cc1,-4.75
8,CCCn1c(CNC(=O)c2ccc(Cl)cc2)nc2ccccc21,1.23
9,COc1ccc(S(=O)(=O)NCc2ccc3c(c2)OCO3)cc1,-3.5
10,CCOC(=O)C1CCCCN1C1CCN(C)CC1 (centres unmarked),-1.21
11,CN1C(=O)c2ccccc2C(C(=O)NCCC2=CCCCC2)C1c1cccs1 (centres unmarked),-0.228
12,CCOCCCNC(=O)N1CCN(c2nnc(C)c3c(C)n(-c4ccc(Cl)cc4)nc23)CC1,2.48
13,COc1ccc(-c2nc(CS(=O)CC(=O)NCC3CCCO3)c(C)o2)cc1 (centres unmarked),-1.05
14,C=CCNC(=O)Cc1coc2ccc3ccccc3c12,-1.11
15,CCN(CC)c1ccc(N2Cc3ccccc3C2=N)cc1,1.96
16,COc1ccccc1/C=C/CNc1cccc(SC)c1,6.54
17,CCC1(CC)Cc2ccccc2C2=C(C(=O)N3CCOCC3)C(=O)C(=O)N21,1.93
18,O=C(Nc1noc2ccccc12)c1ccc(Br)o1,-2.85
19,O=C(C1CCCN(S(=O)(=O)N2CCOCC2)C1)N1CCN(C2CCCCC2)CC1 (centres unmarked),3.61
20,O=c1/c(=C/c2ccccc2)sc2nnc(-c3ccccc3)n12,-5.65
21,COc1ccccc1N1C(=O)CC(N2CCN(c3ccccn3)CC2)C1=O (centres unmarked),-2.77
22,CC(C)C[C@H](NC(=O)c1ccc(-c2cc(C(=O)O)ccc2Cl)s1)C(=O)NCC#N,-6.98
23,COc1ccc(OC)c2c(C)cc(N3CCN(C(=O)CCC4CCCCC4)CC3)nc12,0.895
24,O=C(NC1CCN(Cc2ccccc2)CC1)c1ccc2c(Cl)c3c(nc2c1)CCC3,4.28
25,Cc1nc2ccc(S(=O)(=O)N(C)CC(=O)NC3CCCC(C)C3C)cc2s1 (centres unmarked),4.33

row,Structure (SMILES),% Inhibition @ 10 uM [%]
1,CC(C)Sc1nc2c(c(=O)[nH]c(=O)n2C)n1Cc1ccccc1,-2.24
2,C=CCOc1ccc(Br)cc1/C=C(/C#N)c1nc2cc(C)ccc2[nH]1,4.38
3,CC1=Nc2nnnn2C(c2ccc(Br)cc2)/C1=C(\O)OC1CC(C)CCC1C(C)C (centres unmarked),-1.01
4,NC(=O)c1c(NC(=O)C2CC(=O)N(c3ccccc3)C2)sc2c1CCCC2 (centres unmarked),3.8
5,Cc1ccc(C2C(C#N)=C(N)SC(N)=C2C#N)o1,47.9
6,CCOc1ccc(C2C3=C(O)CCCC3=NC3=C2C(=O)CCC3)cc1OCC (centres unmarked),-1.6
7,COc1ccc2[nH]cc(CCNC(=O)c3cccnc3)c2c1,-1.6
8,CCN(CC)S(=O)(=O)c1ccc(NC(=O)c2cccc(S(=O)(=O)N3CCC(C)CC3)c2)cc1,-2.59
9,CCc1ccc(S(=O)(=O)N2CCCN(S(=O)(=O)c3ccc(CC)cc3)CC2)cc1,-2.1
10,CC1CCN(S(=O)(=O)c2ccc3c(ccn3CC(=O)NCCc3ccccc3)c2)CC1,-4.65
11,CC(C)Cc1nc2ccccc2n1C(C)C(=O)O (centres unmarked),-3.53
12,COCC(C)NCc1cccc(F)c1 (centres unmarked),-3.27
13,COc1cc([C@H]2NCC[C@@]3(O)CCCC[C@H]23)ccc1O,-0.0372
14,CCCCN(C)Cc1c(C)nc2ccc(Br)cc2c1O,-1.63
15,Cc1ccc2cc(CCNS(C)(=O)=O)c(O)nc2c1C,-2.24
16,Cc1nn(CC(=O)NCCCN2C(C)CCCC2C)c(=O)c2cc3occc3n12 (centres unmarked),-3.79
17,O=C(c1ccc(N2C(=O)c3cccc4c(Br)ccc(c34)C2=O)cc1)N1CCOCC1,-9.66
18,Cc1cccn2cc(-c3ccc(NS(=O)(=O)c4ccccc4)cc3)nc12,-3.72
19,OCc1nc2ccccc2n1CC(O)COc1ccccc1 (centres unmarked),3.53
20,Cc1cc(C)c2nc(N3CCCC(C(=O)NCCCN4CCc5ccccc5C4)C3)sc2c1 (centres unmarked),7.91
21,COc1ccc2c3ncn(CCCN4CCCCCC4)c(O)c-3nc2c1,3.24
22,O=C(O)CC(NC(=O)C12CC3CC(CC(C3)C1)C2)c1ccc(Cl)cc1 (centres unmarked),-4.49
23,Cc1ccc(S(=O)(=O)N2CCN(C3=C(Cl)C(=O)c4ccccc4C3=O)CC2)cc1,-6.69
24,Cc1cc(C(=O)NC(C)CCc2ccco2)c2c(C)nn(-c3ccccc3)c2n1 (centres unmarked),2.12
25,CCOC(=O)c1nnc(Cc2c(F)cccc2Cl)o1,-0.0709

row,Structure (SMILES),% Inhibition @ 10 uM [%]
1,O=C(O)C1Cc2c([nH]c3ccccc23)C(c2cccc(Br)c2)N1 (centres unmarked),-3.65
2,CCOC(=O)NC1(C(F)(F)F)NC(=O)N(C2CCCCC2)C1=O (centres unmarked),-5.2
3,COc1ccc(CCNC(=O)c2cc3nc(-c4cccs4)cc(C(F)(F)F)n3n2)cc1OC,-1.1
4,Cc1cccc(Cn2nc(C)c(N)c2C)c1,-3.34
5,Cc1ccc(F)c(NC(=O)c2ccc(Cn3nc(C)cc3C)o2)c1,-5.69
6,CC1C(=O)CC(c2ccccc2)OC1c1ccccc1 (centres unmarked),1.63
7,N#C/C(C(N)=O)=C(O)/C(O)=C\C(=O)c1ccccc1,-1.24
8,Cc1ccc(OCC(=O)Nc2cccnc2Cl)cc1,-12.2
9,CCc1ccc(CN(C(=O)c2ccc(Br)cc2)C2CCS(=O)(=O)C2)cc1 (centres unmarked),-7.5
10,NCC1CCN(S(=O)(=O)c2ccccc2)CC1,-2.84
11,O=C(c1cc(S(=O)(=O)N2CCOCC2)ccc1F)N1CCC2(CC1)OCCO2,-3.78
12,CC1=C(C(=O)Nc2cc(C)ccn2)C(c2ccc(Cl)cc2)C2=C(O)CC(C)(C)CC2=N1 (centres unmarked),-0.305
13,COc1ccc(Cl)cc1NC(=O)COc1ccc(S(=O)(=O)NC(C)C)cc1,0.605
14,CC(C)c1ccc(NC(=O)c2ccccc2Br)cc1,-0.969
15,CC1=C(C(=O)Nc2ccccc2F)C(c2cccc(Br)c2)C2=C(O)CCCC2=N1 (centres unmarked),0.121
16,N#CC1=C(N)Oc2[nH]nc(-c3ccncc3)c2C1c1cccc(O)c1 (centres unmarked),-3.19
17,COc1cc(-c2nc3c(=O)[nH]c(=O)n(C)c3[nH]2)ccc1O,-3.53
18,CCOC(=O)N1CCC(NC(=O)C2CCN(c3nc4ccc(OCC)cc4s3)CC2)CC1,-3.35
19,Cc1cccc(Cn2c(C)c(CNC3CCC(C)CC3)c(C(=O)O)c2C)c1 (centres unmarked),-3.67
20,O=C(Nc1ccc(S(=O)(=O)N2CCc3ccccc32)cc1)c1ccc(Cl)cc1,3.8
21,CC1CCN(C2=NC(=O)/C(=C/c3ccc(O)cc3)S2)CC1,-3.65
22,CC1CC(=O)C2=C(C1)OC(N)=C(C#N)C2c1ccccc1C(F)(F)F (centres unmarked),-2.78
23,O=c1oc2cc(O)c(Cl)cc2c2c1CCCC2,1.37
